The results in this text go back to publication PMC12136788.

The list shows a part of the results.

B1: chr1:230709994:230710823:-|CDS|ENSG00000135744|control|control|control (ssRNA)
RNA: GGGAGUUCUACAGUCCGACGAUCAAGGUCCUGUCUGCCCUGCAGGCUGUACAGGGCCUGCUAGUGGCCCAGGGCAGGGCUGAUAGCCAGGCCCAGCUGCUGCUGUCCACGGUGGUGGGCGUGUUCACAGCCCCAGGCCUGCACCAACAGAGGAUUGAGCAUCA
B2: chr9:14618660:14618761:-|3pUTR|ENSG00000175893|msi1|FALSE|unique (ssRNA)
RNA: GGGAGUUCUACAGUCCGACGAUCUUAGCUUUCCACAGGGAUUUCUUGAAAUGCUUUUGUUAUUAAACUCAAAAGGCAGUGAUUAGGAUGAAAUAAUUGUACAUAAUUUAUUUUAGUACUGACAGUGUUACAGAUUCUAAUUUACAACAGAGGAUUGAGCAUCA
B3: chr15:43184406:43184511:+|CDS|ENSG00000137842|unk|total|mutant (ssRNA)
RNA: GGGAGUUCUACAGUCCGACGAUCACUGCUGUACAUCUGGCAGGUUUAUUCCUGCUACUUUCUUUAUGCAACAUACGGCACCCCCGCUUUUUUAUUCUCCCCUUUGCGGACCUGGUUGACACUGCUGACACCUGUUCUCAUUCGCAACAGAGGAUUGAGCAUCA
B4: chr16:2586768:2586869:+|CDS|ENSG00000140992|unk|total|mutant (ssRNA)
RNA: GGGAGUUCUACAGUCCGACGAUCCUCCUCACACUCCCUGUCAGCCUCCGACACGGGCCUGCCCCAGAGGUCAGGCAGCAACACCGAGCAGUACAUUCACGAUCUGGACUCGAACUCCUUUGAACUGGACUUACAGUUUUCCGACAACAGAGGAUUGAGCAUCA
B5: chr7:5606511:5606625:+|3pUTR|ENSG00000075618|msi1_unk|FALSE|overlapping (ssRNA)
RNA: GGGAGUUCUACAGUCCGACGAUCGGGUGUCUUGGUCUUUUAUUUUUUGUAAGUGUCAUUUGUAUAACUCUAAACGCCCAUGAUAGUAGCUUCAAACUGGAAAUAGCGAAAUAAAAUAACUCAGUCUGCAGCCCCAGGCCGGCCCAACAGAGGAUUGAGCAUCA
B6: ENSG00000124766:be:win_1751|3pUTR|ENSG00000124766|bound_else_gene|NA|bound_elsewhere_windowed (ssRNA)
RNA: GGGAGUUCUACAGUCCGACGAUCACUUCGAGUUUGCUCCCCUUUGCUUGAAGAGACCCCCUCCCCCUUCCAACGAGCUUCCGGACUUGUCUGCACCCCCAGCAAGAAGGCGAGUUAGUUUUCUAGAGACUUGAAGGAGUCUCCCAACAGAGGAUUGAGCAUCA
B7: ENSG00000083799:stop:overlap|stop_codon|ENSG00000083799|stop_codon|NA|stop_codon (ssRNA)
RNA: GGGAGUUCUACAGUCCGACGAUCCCGAUCGGGAUGGUACUGAAAACGCCUUUCUUCUGCAUGUGGCACAGGGUUCUGGUUUGUAGUGGGACAGUUUGUAGUGGGAUCGCCUGUUCUGAGUGAUAUUUUCUGAGAAAAUCCUUUCAACAGAGGAUUGAGCAUCA
B8: chr12:56205560:56205676:-|3pUTR|ENSG00000181852|unk|total|mutant (ssRNA)
RNA: GGGAGUUCUACAGUCCGACGAUCCUCUUGUGGCACAGGCCAUAAUUGUUCCACCGACCCCUCUCCCGCCCUGUGACUGCCGUCCGUUACUUUGAUAAUUUUCUUUGGCCAUUGUUUGUUUAUAUUUCACAAACUCCACCUACUCAACAGAGGAUUGAGCAUCA
B9: chr14:74942539:74942640:-|3pUTR|ENSG00000119630|msi1|total|mutant (ssRNA)
RNA: GGGAGUUCUACAGUCCGACGAUCGUGUAUUUAUUACCGUCACACUCUUCAGUGACUCCUGCUGGUACCUGCCCUCUAUUUAUCCGCCAACUGUUUCCCUGCUGAAUGCCUCGCUCCCUUCAAGACGAGGGGCAGGGAAGGACACAACAGAGGAUUGAGCAUCA
B10: ENSG00000075618:stop:overlap|stop_codon|ENSG00000075618|stop_codon|NA|stop_codon (ssRNA)
RNA: GGGAGUUCUACAGUCCGACGAUCACGCAGGCGUCCUGAAGGCCUCGGCGGAAACCGUGGACCCCGCCUCGCUCUGGGAGUACUAGGGCCGGCCCGUCCUUCCCCGCCCCUGCCCACAUGGCGGCUCCUGCCAACCCUCCCUGCCAACAGAGGAUUGAGCAUCA
B11: ENSG00000156687:stop:overlap|stop_codon|ENSG00000156687|stop_codon|NA|stop_codon (ssRNA)
RNA: GGGAGUUCUACAGUCCGACGAUCACAUUUCAGAAUCCCAGCUUGAUGAAGCCGACUUCAACUACAGCAGGCAAAAUGGACUCUAGUCCACUUCCUCCCAUGAGACAGAGUGAUGGCCAGCUUGGGGACAUUUGCUUUAAAUGGCAACAGAGGAUUGAGCAUCA
B12: chr10:69104613:69104714:+|3pUTR|ENSG00000122862|unk|FALSE|unique (ssRNA)
RNA: GGGAGUUCUACAGUCCGACGAUCACAUAUUUUACAGGGUGGAGUGUACUAUAUACUAUUACCUUUGAAUGUGUUUGCAGAGCUAGUGGAUGUGUUUGUCUACAAGUAUGAUUGCUGUUACAUAACACCCCAAAUUAACUCCCACAACAGAGGAUUGAGCAUCA
B13: chr16:56943551:56943652:+|3pUTR|ENSG00000051108|msi1|total|mutant (ssRNA)
RNA: GGGAGUUCUACAGUCCGACGAUCUGCAUGUCUAUGCUUGAGGAACUUUUCCAAAUGUGUGUGUCUGCAUGUGUGUUUGUACACCGAAGUCACCGAUGCAGAAGUGGUUCUGCUGGUACGAUUUGAUUCCUGUUGGAAUGUUUACAACAGAGGAUUGAGCAUCA
B14: chrX:131089436:131089558:+|3pUTR|ENSG00000147256|unk|total|mutant (ssRNA)
RNA: GGGAGUUCUACAGUCCGACGAUCGGGAAACCUCAAGUGCCGGUCUAAUCCGUGUUUCUGGGAUCCAAAGUCCGAGGAAAAUUCCGAUUUUAUUGCCUGGAUCUGCUUUAAAGACAAUUGGUGUUUACACCCUCUUGUCAGCAACAACAGAGGAUUGAGCAUCA

This assay has as its target MSI1 full-length (mouse, UniProt Q61474 1-362). Description: nsRBNS (natural sequence RNA bind-n-seq); RBNS binding buffer (assumed for nsRBNS): 25 mM Tris pH 7.5, 150 mM KCl, 3 mM MgCl2, 0.01% Triton X-100, 500 ug/ml BSA, 20 U/ml SUPERase-In, 4 C; UNK is unkempt and MSI1 is Musashi-1; names of the RNAs are library labels; protein concentration not given here; high values mean tight binding.
Sequence of UniProt Q61474 (Q61474 whole entry): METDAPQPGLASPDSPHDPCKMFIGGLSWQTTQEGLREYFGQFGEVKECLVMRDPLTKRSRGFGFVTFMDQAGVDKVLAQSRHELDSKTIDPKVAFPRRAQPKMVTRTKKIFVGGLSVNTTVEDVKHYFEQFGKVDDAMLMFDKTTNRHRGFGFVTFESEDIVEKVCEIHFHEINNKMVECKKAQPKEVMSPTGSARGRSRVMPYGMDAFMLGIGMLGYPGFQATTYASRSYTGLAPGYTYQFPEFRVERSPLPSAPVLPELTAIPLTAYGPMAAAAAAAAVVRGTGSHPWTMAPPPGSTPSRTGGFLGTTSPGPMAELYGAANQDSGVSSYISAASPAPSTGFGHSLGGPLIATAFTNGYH
In turn, B1 gave a binding signal of 0.313 enrichment R.
The figure for B2 is 1.51 enrichment R; for B3 it is 0.391 enrichment R; for B4 it is 0.708 enrichment R.
The figure for B5 is 3.58 enrichment R; for B6 it is 0.611 enrichment R; for B7 it is 1.94 enrichment R.
B8 gave a binding signal of 0.685 enrichment R.
With B9, the binding signal came to 0.338 enrichment R.
B10 showed a binding signal of 0.517 enrichment R.
The figure for B11 is 0.362 enrichment R; for B12 it is 0.397 enrichment R.
Regarding B13, the binding signal stood at 0.224 enrichment R.
The figure for B14 is 0.224 enrichment R.
